Assay results from PMC4336329 (PLoS ONE, 2015).
The whole screen tested about 310,000 compounds, of which about 2,200 (0.71%) showed an effect of 50% or more. The effect is printed as a negative number. The list shows a part of the results.

biological target: human ether-à-go-go-related gene (hERG) potassium channel (human, UniProt Q12809); assay: primary screen, population patch clamp on CHO cells stably expressing hERG
Sequence (Q12809 whole entry, looked up): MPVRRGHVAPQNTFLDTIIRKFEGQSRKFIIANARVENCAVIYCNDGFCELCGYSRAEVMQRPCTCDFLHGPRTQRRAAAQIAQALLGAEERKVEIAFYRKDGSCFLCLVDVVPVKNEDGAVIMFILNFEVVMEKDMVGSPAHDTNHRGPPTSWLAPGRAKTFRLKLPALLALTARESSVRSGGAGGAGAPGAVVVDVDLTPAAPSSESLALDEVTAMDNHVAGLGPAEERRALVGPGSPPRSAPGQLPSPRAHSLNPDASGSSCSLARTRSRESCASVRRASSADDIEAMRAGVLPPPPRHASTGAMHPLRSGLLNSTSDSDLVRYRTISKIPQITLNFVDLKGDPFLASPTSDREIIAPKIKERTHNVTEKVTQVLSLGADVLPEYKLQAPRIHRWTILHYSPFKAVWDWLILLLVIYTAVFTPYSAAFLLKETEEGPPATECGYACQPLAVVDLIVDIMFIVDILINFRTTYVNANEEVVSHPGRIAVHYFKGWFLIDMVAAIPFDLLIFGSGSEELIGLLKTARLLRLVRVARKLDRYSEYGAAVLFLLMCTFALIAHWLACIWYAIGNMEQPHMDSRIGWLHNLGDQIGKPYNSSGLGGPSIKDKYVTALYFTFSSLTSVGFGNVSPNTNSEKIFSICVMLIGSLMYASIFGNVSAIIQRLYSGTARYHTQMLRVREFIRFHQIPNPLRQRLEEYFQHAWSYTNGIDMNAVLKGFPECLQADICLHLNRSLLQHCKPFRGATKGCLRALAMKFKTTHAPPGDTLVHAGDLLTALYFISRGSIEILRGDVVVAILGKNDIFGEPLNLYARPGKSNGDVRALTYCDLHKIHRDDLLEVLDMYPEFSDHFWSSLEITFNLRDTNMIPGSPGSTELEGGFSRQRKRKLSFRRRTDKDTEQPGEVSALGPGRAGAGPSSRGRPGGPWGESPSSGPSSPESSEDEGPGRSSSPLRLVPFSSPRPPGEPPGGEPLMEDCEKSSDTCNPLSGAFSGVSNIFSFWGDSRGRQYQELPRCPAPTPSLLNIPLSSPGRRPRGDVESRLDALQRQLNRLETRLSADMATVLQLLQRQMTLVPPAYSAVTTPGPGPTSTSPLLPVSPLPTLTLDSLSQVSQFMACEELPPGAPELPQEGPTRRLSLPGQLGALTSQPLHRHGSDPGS

SMILES	hERG current change (%, negative = inhibition) at 1uM [%]
O=C(NCC1CCCO1)C(C(=O)c1ccc(F)cc1)n1ccccc1=O (centres unmarked)	14.5
O=C(c1cc2ccccc2o1)N(Cc1nnc(-c2ccccc2Cl)o1)C1CC1	-3.08
CCOC(=O)N1CCC(N2C(=O)c3ccccc3C2Nc2cc(Cl)c(OC)cc2OC)CC1 (centres unmarked)	2.81
O=C(CN(CCc1ccccc1)C(=O)Cn1nnc(-c2cccs2)n1)NCc1ccco1	-7.49
Cc1cnn(C(=S)NCCc2ccccc2)c1	8.03
C/C(=N\NC(=O)COc1ccccc1F)c1cc2ccccc2o1	7.4
Cc1csc2nc(CSc3ccc(Cl)cc3)cn12	0.767
COc1ccc(C(=O)N/N=C/C(C)c2ccccc2)cc1OC (centres unmarked)	1.75
COc1cc(C)c(Br)cc1S(=O)(=O)N1CCCC1	-12.7
Cc1cc(C(=O)OCC(=O)c2cccc([N+](=O)[O-])c2)c2cccc(C)c2n1	5.16
O=C(NC1CCCc2ccccc21)C1CCN(S(=O)(=O)N2CCCCCC2)CC1 (centres unmarked)	0.951
CCCCn1c(N)c(N(CCOC)C(=O)C2CC(=O)N(Cc3ccco3)C2)c(=O)[nH]c1=O (centres unmarked)	13.2
CC(=O)Nc1ccc(S(=O)(=O)N2CCC(NC(C)=O)(c3cccc(F)c3)CC2)cc1	1.86
Cc1ccc(NC(=O)CSc2nnc(-c3cccs3)o2)cc1S(=O)(=O)N(C)C	2.22
CCOc1cc(C(=O)Nc2ccc(S(=O)(=O)NC3=NCCCCC3)cc2)cc(OCC)c1OCC	3.88
Cc1ccc(C)c(-n2c(CNC(=O)c3ccco3)nnc2SCC(=O)N2CCc3ccccc32)c1	18.2
COc1ccccc1CN1CCCC(CN(CCN(C)C)C(=O)c2ccc(C)cc2)C1 (centres unmarked)	-0.236
CCOC(=O)c1cnc2sccn2c1=O	10.5
Cc1nc(SCC(=O)Nc2ccccn2)n[nH]1	16.3
Cc1oc2c(O)c(O)ccc2c(=O)c1-c1ccccc1	6.32
CC1(C)CC2CC(C)(CN2C(=O)COC(=O)CNC(=O)c2ccc(Cl)c(Cl)c2)C1 (centres unmarked)	2.31
O=C(c1c[nH]c(C(=O)C(Cl)(Cl)Cl)c1)c1ccccc1Cl	10.8

SMILES	hERG current change (%, negative = inhibition) at 1uM [%]
COc1cccc(NC(=O)CSc2ncnc3c2oc2ccccc23)c1	10.8
CN1CCN(c2nc3nonc3nc2N2CCN(C)CC2)CC1	4.65
C=CCn1cccc(C(=O)Nc2ccc(OC)c(OC)c2)c1=O	10.8
O=C(NNc1nc(-c2ccccc2)c2cc(Br)ccc2n1)c1ccc(S(=O)(=O)N2CCCCC2)cc1	10.5
O=C(O)c1ccc(N2C(=O)c3[nH]nc(-c4ccccc4)c3C2c2ccccc2)cc1 (centres unmarked)	13.6
CC(C)(C)NC(=O)NCCc1ccccc1	10.7
Cc1nnc(SCc2cccs2)[nH]c1=O	-7.03
CCOC(=O)c1ccc(CNC(=O)Cn2nnc(-c3cccc(C)c3)n2)o1	-9.37
O=C(CN1CCC(C(O)(c2ccccc2)c2ccccc2)CC1)Nc1ccccc1	-5.06
Cc1cccc(-c2cc3nc(C)cc(NCCCn4ccnc4)n3n2)c1	-19
CCOC(=O)Cc1cc(C)[nH]c1C(=O)OCC	8.13
CCOC(=O)CNC(=O)CSc1ncnc2c1cnn2-c1ccc(C)cc1	8.26
O=C(/C=C/c1ccc2c(c1)OCO2)c1cccnc1	18.8
CC(=O)OC1(c2ccccc2)CC(C(C)(C)C)CN(C(C)(C)C)C1.Cl (centres unmarked)	14.3
CC(=O)Nc1c(O)c2ccccc2[nH]c1=O	4.66
O=C(CN(Cc1ccco1)C(=O)CNS(=O)(=O)c1ccccc1)NCc1ccccc1	-5.97
COc1ccc(NC(=O)CS(=O)CC(=O)N2CCN(C3CCCC3)CC2)cc1 (centres unmarked)	21.4
CCc1ccccc1NC(=S)N(CCOC)C(C)c1ccco1 (centres unmarked)	5.16
Cc1ccc(NC(=O)Cn2cnc3cc([N+](=O)[O-])ccc3c2=O)cc1	5.59
CC(C)n1c(=O)n(CC(=O)NCC2CCCO2)c(=O)c2c3c(sc21)COC(C)(C)C3 (centres unmarked)	10.8
CCOC(=O)C1CCCN(C(=O)CCc2nnc(-c3ccc(C(C)=O)s3)o2)C1 (centres unmarked)	17.8
COCCNC(=S)N/N=C(\C)c1ccc(OC(F)F)cc1	5.64
